From PubChem BioAssay AID1479 (National Center for Advancing Translational Sciences (NCATS), 2009)
The whole screen tested about 280,000 compounds, of which about 820 (0.29%) were called active. Inconclusive means that the source gave no clear call. Such entries were picked first, then a sample of the others. Calls follow the shape of the dose curve; as a rule, active = well fitted curve in either direction with a large enough effect; inconclusive = small, poorly fitted or top-dose-only effect; inactive = flat fitted curve, though single readings scatter. No potency is given beside an inconclusive call; the fits are too rough.

Experiment: Total Fluorescence Counterscreen for Inhibitors of the Interaction of Thyroid Hormone Receptor and Steroid Receptor Coregulator 2
Details: TRb/SRC2 Texas Red total fluorescence interference; series mostly up to 106 µM
Procedure, shortened: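 Flags fluorescent or light-absorbing compounds by total fluorescence, S + 2P, at 555 nm excitation and 632 nm emission. Mixture: 20 nM Texas Red SRC2 peptide, 0.6 uM human TRb LBD, 1 uM T3, 5% DMSO; compound exposure 5 h at ambient temperature.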
Potency is read from the fitted curve at half-maximal effect; tags tell the direction and shape of the fitted curve or compound fluorescence and quenching.

Structure (SMILES) | Potency
COc1ccc(/C=C(/C#N)c2nc(-c3ccc(-c4ccccc4)cc3)cs2)cc1OC | inconclusive [falling, partial curve, poor fit]
COc1ccc(CNC(=O)CN2C(=O)COc3ccc(S(=O)(=O)NC4CCCC4)cc32)cc1 | inconclusive [quencher, full curve]
O=C(O)CC(C(=O)O)N1C(=O)/C(=C/C=C/c2ccco2)SC1=S (stereo unspecified) | inconclusive [quencher, partial curve]
CCCC1(C(=O)OCC)NC(c2ccc(O)cc2)C2C(=O)N(c3ccc4c(c3)OCCO4)C(=O)C21 (stereo unspecified) | inactive
COc1ccc(C(=O)Nc2nnc(S(=O)(=O)N3CCCCCC3)s2)cc1OC | inactive
CN(C)[C@H]1C(=O)C(C(=O)NCN2CCCC2)=C(O)[C@]2(O)C(=O)C3=C(O)c4c(O)cccc4[C@](C)(O)[C@H]3C[C@H]12 | active: 14.1 µM [quencher]
COc1ccc2[nH]cc(CCNc3nc(-c4ccc(C(=O)N(C)C)cc4)nc4ccccc34)c2c1 | inactive
CC(C)CS(=O)(=O)c1oc(-c2ccc(F)cc2)nc1S(=O)(=O)c1ccccc1 | inconclusive [falling, full curve, poor fit]
COc1cccc(Cn2nnc(C(=O)Nc3cc(C)ccc3C)c2N)c1 | inconclusive [quencher, partial curve]
CCOc1ccccc1NC(=O)c1c(NC(=O)COc2ccccc2)sc2c1CCCCC2 | inactive
COc1cccc(/C=C/C(=O)OCC(=O)NCC2CCCO2)c1OC (stereo unspecified) | active: 70.8 µM [quencher]
O=C(NC1CCCCCC1)c1ccc2c(c1)sc1nc(-c3ccc(F)cc3)cn12 | active: 1 µM [quencher]
COC(=O)/C(=C/Nc1ccc(O)cc1)[N+](=O)[O-] | inactive
Cc1cccc(-n2c(O)c(C=Nc3ccccc3O)c3ccccc3c2=O)n1 | inactive
CCn1nc([N+](=O)[O-])c(C(C#N)c2nc3cc(C(F)(F)F)ccc3s2)c(Cl)c1=O (stereo unspecified) | inactive
CC1CN(C2=Nc3cccc4cccc2c34)CC(C)O1 (stereo unspecified) | inactive
CC(C)(C)Cc1nnc(NC(=O)Cc2ccc([N+](=O)[O-])cc2)s1 | inconclusive [quencher, partial curve]
COc1cccc(CNC(=O)C2CCN(C(=O)N3CCOc4ccc(Cl)cc43)CC2)c1OC | inconclusive [falling, full curve, poor fit]
Nc1nn2c(C(F)(F)F)cc(=O)[nH]c2c1N=Nc1cccc(F)c1 | inconclusive [falling, single point]
Cc1ccc(CCNC(=O)CCN2N=C(c3ccc(C)cc3)CCC2=O)cc1 | inconclusive [falling, partial curve, poor fit]
COc1ccc(-c2nc3cc(NC(=O)Cc4ccc(Cl)cc4)ccc3o2)cc1OC | inconclusive [quencher, full curve]
COc1ccccc1CNC(=S)Nc1ccc2nc(N3CCN(C)CC3)cc(C)c2c1 | inactive

Structure (SMILES) | Potency
Cc1cc(C)c2nc(N3CCCC(C(=O)NCc4cccc(Cl)c4)C3)sc2c1 (stereo unspecified) | inconclusive [quencher, full curve]
Cc1cccc(Nc2nnc(SCC(=O)Nc3ncc(C(F)(F)F)cc3Cl)s2)c1C | inconclusive [falling, full curve, poor fit]
Cc1ccc(NS(=O)(=O)c2ccc3c(c2)NC(=O)C(C)C(=O)N3)cc1F (stereo unspecified) | inactive
Cc1nc(N=Nc2cc([N+](=O)[O-])ccc2Cl)c(COP(=O)(O)O)c(C=O)c1O | inconclusive [quencher, full curve]
O=C(Cc1c[nH]c2ccccc12)NC1(C(=O)NC2CCCCC2)CCCCC1 | inconclusive [falling, partial curve, poor fit]
CCC12CN3CC(CC)(CN(C1)C3c1c(O)ccc3ccccc13)C2=O (stereo unspecified) | inconclusive [falling, single point]
COc1ccc(N(CC(=O)NCc2ccc(F)cc2)S(=O)(=O)c2c(C)noc2C)cc1 | inactive
C=C(C)CC(C)(C)C | inactive
Cc1onc(C(=O)Nc2c(C)n(C)n(-c3ccccc3)c2=O)c1[N+](=O)[O-] | inconclusive [rising, partial curve, poor fit]
CCSc1nnc(NC(=O)c2cc(=O)c3cc(C)c(C)cc3o2)s1 | inconclusive [falling, full curve, poor fit]
O=C(NNC(=S)Nc1ccc(OC(F)F)cc1)c1cc2c(s1)CCCC2 | active: 631 µM [quencher]
Cc1cc(C)cc(NC(=O)Nc2ccc3nc(N4CCN(C)CC4)cc(C)c3c2)c1 | inconclusive [falling, full curve, poor fit]
CCCN1CN(Cc2ccccc2)CNC1=S | inconclusive [falling, full curve, poor fit]
Cc1nnc(SCC(=O)Nc2c(C)n(C)n(-c3ccccc3)c2=O)n1Cc1ccccc1 | inactive
O=C(COc1ccc(F)cc1)NCC(c1ccc(Cl)cc1)N1CCCCC1 (stereo unspecified) | active: 39.8 µM [quencher]
COc1cc(OC)c(-c2cc(C(=O)NCc3ccc(F)cc3)c3c(-c4ccccc4)[nH]nc3n2)cc1OC | active: 3.55 µM [quencher]
CCCCOc1cccc(C(=O)N(Cc2ccc(N(C)C)cc2)C2CCS(=O)(=O)C2)c1 (stereo unspecified) | inconclusive [falling, full curve, poor fit]
CC(C)=C(C#N)c1nc2ccccc2s1 | inconclusive [fluorescent, partial curve]
COc1ccc(N2CCN(S(=O)(=O)c3ccc(C4CCCCC4)cc3)CC2)cc1 | inconclusive [quencher, full curve]
CC(C)Cn1nc(NC(=O)c2cccc(Cl)c2)c2cc3ccccc3nc21 | active: 1410 µM [quencher]
Cc1ccc(Sc2ccc(N3CCCC(C(=O)Nc4ccc(F)c(Cl)c4)C3)nn2)cc1 (stereo unspecified) | inactive
CCCn1c2ccccc2c2cnn(CC(=O)NCC3CCN(Cc4ccc(C)cc4)CC3)c(=O)c21 | inconclusive [quencher, full curve]

Structure (SMILES) | Potency
COc1ccc2c(C)c(CCC(=O)NCCc3ccccc3)c(=O)oc2c1 | inconclusive [falling, full curve, poor fit]
Cc1ccc(-c2csc(NC(=O)C3CC(=O)N(Cc4ccco4)C3)n2)cc1 (stereo unspecified) | inactive
Cc1cc(F)ccc1NC(=O)c1csc2c1CCC(C)C2 (stereo unspecified) | inconclusive [falling, full curve, poor fit]
CC(=O)O[C@H]1C(=O)[C@@]2(C)C([C@H](OC(=O)c3ccccc3)[C@]3(O)C[C@H](OC(=O)[C@H](O)[C@@H](NC(=O)c4ccccc4)c4ccccc4)C(C)=C1C3(C)C)[C@]1(OC(C)=O)CO[C@@H]1C[C@@H]2O (stereo partly specified) | inconclusive [quencher, full curve]
COc1cccc(F)c1C(=O)NC(=O)Nc1ccc2nc(C)oc2c1 | inconclusive [quencher, partial curve]
CCC(CC)C(=O)Nc1nnc(S(=O)(=O)N(C)c2cc(C)cc(C)c2)s1 | inconclusive [quencher, partial curve]
Cc1ccc(NC(=O)c2c3c(nc4ccccc24)CCC3)cc1S(=O)(=O)N(C)C | inactive
Fc1ccc(CNCCCSc2nnnn2-c2ccccc2)cc1 | inconclusive [falling, partial curve, poor fit]
CN(C)C(=S)Nc1ccc2c(c1)OCO2 | inactive
Cc1ccc2nc(NCc3ccccc3)c3nncn3c2c1 | inconclusive [falling, full curve, poor fit]
COc1ccc(NC(=O)c2c(NCc3ccc(C)o3)sc3c2CCCCC3)c(OC)c1 | active: 112 µM [quencher]
CCC(=O)N1c2nc(C(C)C)nn2C2(CCCCC2)[C@@H]2CCCC[C@@H]21 | inconclusive [falling, full curve, poor fit]
Cc1ccc(Cl)cc1N1CCN(C(=O)Cn2nc(C)n3c(cc4sccc43)c2=O)CC1 | active: 79.4 µM [quencher]
COc1ccc(N2CCN(S(=O)(=O)CCNC(=O)Cc3ccc(-c4ccccc4)cc3)CC2)cc1 | inconclusive [falling, partial curve, poor fit]
COc1ccc(C(=O)N=c2sc3cc(Cl)ccc3n2C)cc1 | inconclusive [quencher, full curve]
CCN(CC)CCOC(=O)c1ccc(NC(=O)CCn2c(=O)oc3ccccc32)cc1 | inconclusive [falling, full curve, poor fit]
O=C(N/N=C/c1cc([N+](=O)[O-])cc([N+](=O)[O-])c1O)/C(=C\c1cccs1)NC(=O)c1ccccc1 | inactive
COc1cccc(CNc2ccc3c(c2)ncn3C)c1OC | active: 0.0089 µM [quencher]
Cc1cccc(OCc2ccc(-c3nc(C#N)c(N4CCN(c5ccccc5)CC4)o3)o2)c1 | active: 6310 µM [quencher]
O=C(NCCSc1c(-c2ccc(Br)cc2)[nH]c2ccccc12)c1ccc(S(=O)(=O)N2CCOCC2)cc1 | inactive
O=C(N1CCN(c2ccc(F)cc2)CC1)C1(c2cccs2)CCOCC1 | inconclusive [falling, full curve, poor fit]
CCN(CC)c1ccc(NC(=O)c2cc(CN3CCCC3)on2)c(C)c1 | inactive
